The values that follow come from ChEMBL document CHEMBL4888484, “Replenishing the malaria drug discovery pipeline: Screening and hit evaluation of the MMV Hit Generation Library 1 (HGL1) against asexual blood stage Plasmodium falciparum ,using a nano luciferase reporter read-out” (2022).

About 540 (0.36%) of roughly 150,000 compounds showed an effect of 50% or more. Some of the results follow.

This assay relates to Plasmodium falciparum. As to the kind of experiment: Primary screen in NF54 nanoGlo assay, in single point, at 2uM, 72h; a lower Z score goes with more inhibition. Format: functional, Erythrocyte. Particulars: timepoint 72 hour.

Take `Cc1ccc(-c2ncc(CN(C)CCc3nccs3)s2)o1`: the “% Inhibition” value worked out at 1% and the Z score is -0.11.
For `Cn1nc(CC2CCN(c3cc(N)ncn3)CC2)n(-c2ccccc2)c1=O`, in that order: -2% and 0.27.
For `Cc1cc(O)nc(CN2CC(C)CC(C)C2)n1` (centres undefined), in that order: 34% and -4.43.
On the same counts, the results for `CC1CN(C(=O)c2ccc(Cn3cncn3)cc2)C(C)CO1` (centres undefined) are 10% and -1.56.
Turning to `Cc1ncccc1C(=O)Nc1cnccn1`, the “% Inhibition” value is on record as -7% and the Z score is listed as 0.92.
For `CCCCNC(=O)C1=CN(CCc2ccccc2)S(=O)(=O)N=C1C`, in that order: -10% and 1.29.
On the same counts, the results for `O=C(O)[C@H](Cc1c[nH]c2ccccc12)n1cc(-c2nccs2)nn1` are 8% and -1.1.
For `NC1CCC(C(=O)NCC2(c3ccccc3Cl)CCOCC2)C1` (centres undefined), in that order: 8% and -1.21.
Take `CC(C)[C@H](Oc1ccccc1Br)C(=O)Nc1nnc(C2CC2)s1`: the “% Inhibition” value is -6% and the Z score was 1.18.
For the compound `Cc1ccc(CNC(=O)C(=O)Nc2cnc3ccccc3c2)c(C)c1`, the “% Inhibition” value was determined as 6% and the Z score is given as -0.81.
As to `O=C1N(CC2CC2)CCC[C@@]1(O)CN1CCC(Cc2ccccc2)CC1`, the “% Inhibition” value is listed as -16% and the Z score is recorded as 1.41.
On the same counts, the results for `COc1ccc(C)cc1S(=O)(=O)N1CCc2cc3ccccc3nc21` are -11% and 1.26.
`Cc1cc(CNc2nc(C)ccc2C(N)=O)ccn1`: the “% Inhibition” value is -5% and the Z score turned out to be 0.99.
For `COc1ccc(CC(=O)N[C@H]2CCOC2)cc1OC`, in that order: -1% and 0.14.
For the compound `Cc1csc([C@H](C)N(C)Cc2nc(-c3ccsc3)oc2C)n1`, the “% Inhibition” value is given as 8% and the Z score was -1.55.
Regarding `NC(=O)Cc1nc(C[C@H]2CCc3ccccc32)n(CC(F)(F)F)n1`, the “% Inhibition” value amounted to 5% and the Z score is given as -0.65.
On the same counts, the results for `O=C(Nc1ccncc1F)N[C@H]1CCCOCC1` are -4% and 0.82.
As for `CC(C)CN1CCCn2nc(CNc3noc(-c4ccccc4)n3)cc2C1`, the “% Inhibition” value is -4% and the Z score came out at 0.4.
For `CNC(=O)NC(=O)CNC(C)C(C)c1ccccc1C(F)(F)F` (centres undefined), in that order: -10% and 1.35.
For `Cc1nc(C(=O)N[C@H]2CCS(=O)(=O)C2)c(-c2ccccc2)s1`, in that order: -1% and 0.05.
On the same counts, the results for `CCN(C)[C@H]1CCN(C(=O)c2scc(C)c2Cl)C1` are -2% and 0.47.
Consider `CC[C@H](OC)C(=O)N(C)Cc1cscn1`, for which the “% Inhibition” value is on record as -10% and the Z score is 1.87.
`O=C(NS(=O)(=O)Cc1ccccc1)c1cccc(-c2ncn[nH]2)c1`: the “% Inhibition” value was -11% and the Z score stood at 1.43.
On the same counts, the results for `CN(C)c1ccc(C2OCC3(CCC4(COC(c5ccc(N(C)C)cc5)OC4)C3=O)CO2)cc1` (centres undefined) are 2% and -0.28.
On the same counts, the results for `Cc1cccc(N(C)S(=O)(=O)c2c(C)sc(C)c2-c2ccno2)c1` are -14% and 2.36.
With `C[C@H](O)c1ncc(CNc2ccc(Br)cc2CO)s1`, the “% Inhibition” value is given as -10% and the Z score worked out at 1.74.
For `Cc1cccc(CCNC(=O)CC[C@H](C)N2CCOCC2)n1`, in that order: -2% and 0.29.
As for `CN1CCCC(COC(=O)Cc2ccc(OCC#N)cc2)C1c1ccc(C(F)(F)F)cc1` (centres undefined), the “% Inhibition” value is recorded as -8% and the Z score came out at 1.2.
`CC(C)NC(=O)c1nnc2n1CCCC2`: the “% Inhibition” value is reported as -16% and the Z score is 3.12.
`Cc1ccnc(NC(=O)c2ccc(S(=O)(=O)c3ccccc3)cc2)c1`: the “% Inhibition” value is recorded as -4% and the Z score was found to be 0.46.
On the same counts, the results for `O=C(c1ccc(-c2cccc(Cl)c2Cl)o1)N1CCC1` are -14% and 1.69.
On the same counts, the results for `CCn1nccc1S(=O)(=O)N(C)c1ccc(Br)cc1C` are -3% and 0.27.
As for `COc1ncnc(OC)c1C(=O)NC[C@@H](CO)c1cccnc1`, the “% Inhibition” value turned out to be 4% and the Z score is on record as -0.56.
Regarding `Cc1noc(C)c1CNC(=O)[C@@H]1CCCCN1CC(C)C`, the “% Inhibition” value is -13% and the Z score is recorded as 1.72.
For `O[C@H]1CN(Cc2ccc(C#Cc3cncnc3)cc2)CC[C@@H]1N1CCOCC1`, in that order: -5% and 0.67.
On the same counts, the results for `O=C(O)c1ccc(CN2CCC[C@H]2Cn2ccnn2)c(Br)c1` are 4% and -0.82.
On the same counts, the results for `CC(C)c1nnc([C@H](C)NC(=O)c2cn[nH]c2)o1` are -15% and 1.9.
In the case of `CCn1c(C)nc2cc(NS(=O)(=O)c3ccccc3)cc(C(=O)NCc3cccc(F)c3)c21`, the “% Inhibition” value was -5% and the Z score came to 0.71.
On the same counts, the results for `COC1CCN(C[C@]2(O)CCCN(CCC3CCCCC3)C2=O)CC1` are 5% and -0.66.
On to `CC[C@@H](CC#N)NC(=O)c1ccc(O)cc1C`, for which the “% Inhibition” value is -10% and the Z score was 1.42.
For `N#C[C@@H](C(=O)COc1cc(F)ccc1F)c1nc2ccccc2s1`, in that order: -6% and 1.11.
For `Cc1[nH]ccc1C(=O)N1CCCC2CCCC21` (centres undefined), in that order: 30% and -3.45.
